The full ranking holds about 110,000 compounds; the median of “z-score” is about -0.1, and the highest 2% start at about 2. Some of the results follow.
What follows are compounds tested against Metabotropic glutamate receptor 8 (Rattus norvegicus) (UniProt P70579) (assay: rat mGluR8 modulators via GIRK flux, primary screen, cell-based, thallium flux, HTS (AID 488969)). Conditions: HEK293 rat mGluR8, GIRK (G protein-gated inwardly rectifying potassium channel) thallium flux, FluoZin2; at 10 µM; stronger effect = higher value; submaximal glutamate (EC20) added with thallium.
UniProt P70579, sequence (P70579 whole entry, looked up): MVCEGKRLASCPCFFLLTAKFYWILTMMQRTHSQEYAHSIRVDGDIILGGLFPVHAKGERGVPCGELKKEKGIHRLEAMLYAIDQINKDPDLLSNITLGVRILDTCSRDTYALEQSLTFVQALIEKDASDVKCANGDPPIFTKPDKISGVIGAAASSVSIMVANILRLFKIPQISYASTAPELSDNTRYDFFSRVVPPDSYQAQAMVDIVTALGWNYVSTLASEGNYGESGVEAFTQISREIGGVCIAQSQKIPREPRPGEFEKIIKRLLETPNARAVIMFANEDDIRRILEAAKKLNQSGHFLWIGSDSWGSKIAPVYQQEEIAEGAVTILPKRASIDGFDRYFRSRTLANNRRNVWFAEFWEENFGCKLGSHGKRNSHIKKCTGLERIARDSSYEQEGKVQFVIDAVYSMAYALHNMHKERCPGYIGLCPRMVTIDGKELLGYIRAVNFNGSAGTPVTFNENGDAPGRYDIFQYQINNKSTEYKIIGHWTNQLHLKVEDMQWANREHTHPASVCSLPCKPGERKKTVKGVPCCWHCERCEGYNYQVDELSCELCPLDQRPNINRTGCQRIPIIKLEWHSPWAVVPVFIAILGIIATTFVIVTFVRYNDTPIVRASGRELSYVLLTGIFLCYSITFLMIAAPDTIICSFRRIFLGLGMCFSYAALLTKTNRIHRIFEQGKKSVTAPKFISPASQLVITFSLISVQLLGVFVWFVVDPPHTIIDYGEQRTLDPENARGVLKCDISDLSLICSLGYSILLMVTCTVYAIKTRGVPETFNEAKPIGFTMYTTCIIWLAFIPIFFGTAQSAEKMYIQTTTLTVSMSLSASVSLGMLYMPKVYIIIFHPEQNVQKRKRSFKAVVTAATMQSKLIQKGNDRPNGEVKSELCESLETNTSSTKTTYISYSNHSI
With `CCOC(=O)c1ccc(NC(=O)CCNc2c(N3CCCC3)c(=O)c2=O)cc1` the z-score was 0.107.
For `O=c1cc(-c2ccccc2)[nH][nH]1`, the z-score was 0.252.
`C=CCn1c(-c2csc3ccccc23)n[nH]c1=S` gave a z-score of -0.12.
Compound `Cc1ccc(C)c(NC(=O)c2ccccc2Sc2ccc([N+](=O)[O-])cc2Cl)c1` has a z-score of 0.179.
`O=c1[nH][nH]c(-c2ccccc2)c1C=Nc1ccccc1Cl` gave a z-score of -0.543.
In the case of `O=C(c1ccco1)N1CCN(S(=O)(=O)c2ccc3c(c2)CCN3C(=O)C2CCC2)CC1`, the z-score is reported as 0.2.
`CC(=O)Nc1nc(C)c(-c2csc(Nc3ccc(O)cc3)n2)s1` was tested, and the z-score was -0.561.
With `S=c1[nH]nc(-c2cc(-c3ccco3)[nH]n2)n1-c1ccccc1Cl` the z-score was -0.465.
`COc1ccccc1/C=N/N(C(C)=O)c1nc(-c2ccc(F)cc2)cs1` gave a z-score of -0.134.
`CCOC(=O)c1ccccc1NC(=O)c1ccc(F)cc1` showed a z-score of -0.236.
`Cc1ccc(C)c(NC2=C(Cl)C(=O)OC2OC(=O)c2ccco2)c1` (configuration not stated) was tested, and the z-score was -1.27.
In the case of `Cn1nnnc1SCC(=O)N1c2ccccc2Sc2ccc(Cl)cc21`, the z-score is reported as -0.658.
`N#Cc1nc(COc2ccc(F)cc2)oc1N1CCN(Cc2ccccc2)CC1` showed a z-score of -0.205.
For `O=c1oc2ccccc2cc1-c1csc(NN=C2CCCCC2)n1`, the z-score was -0.185.
Compound `CCCCOC(=O)C1CCCC(C(=O)OCCCC)N1` (configuration not stated) has a z-score of 1.39.
`CC(C)C(=O)NC(Nc1cc(C(F)(F)F)ccc1Cl)C(Cl)(Cl)Cl` (configuration not stated) gave a z-score of -0.457.
With `COc1ccc(C(C(=O)NC2CCCCC2)N(Cc2cccs2)C(=O)Cc2c[nH]c3ccccc23)cc1OC` (configuration not stated) the z-score was 0.273.
For `CCOC(=O)c1nn(-c2ccc(Cl)cc2)c2nnc(Cc3ccccc3)c(=O)n12`, the z-score was -0.161.
For `Cc1c(Cl)cccc1-n1ccnc1SCC(=O)O`, the z-score was -0.317.
`COc1cc(SC)ccc1C(=O)NCCOc1ccc(F)cc1` gave a z-score of -0.486.
`Cc1ccccc1NC(=S)NCCc1c[nH]c2ccccc12` showed a z-score of 0.196.
In the case of `COC(=O)CSc1nc2ncc(Cl)cc2[nH]1`, the z-score is reported as 0.0701.
In the case of `CCNC(=O)/C(C#N)=C/c1c(N(Cc2ccccc2)Cc2ccccc2)nc2ccccn2c1=O`, the z-score is reported as 0.121.
`Cc1cc(C)nc(SCC(=O)c2cc3ccccc3oc2=O)n1` was tested, and the z-score was -0.151.
With `O=C(CCN1C(=O)c2ccccc2C1=O)Nc1cc(F)ccc1F` the z-score was 0.0571.
In the case of `O=S(=O)(Cc1cccc(F)c1)c1c[nH]c2ccccc12`, the z-score is reported as 0.249.
`COc1ccc(OCc2cccc(C(=O)Nn3cc([N+](=O)[O-])cn3)c2)cc1` was tested, and the z-score was 0.046.
Compound `COc1ccc(-c2nc(CS(=O)(=O)CC(=O)NCCc3cc(OC)ccc3OC)c(C)o2)cc1` has a z-score of -0.299.
Compound `Cc1cc(C(=O)COC(=O)c2ccccc2O)c(C)n1Cc1cccs1` has a z-score of -0.245.
Compound `CN1C(=O)CC(C(=O)Nc2ccc(F)cc2)SC1=Nc1ccc2c(c1)OCO2` (configuration not stated) has a z-score of 0.161.
`CC(CCc1ccccc1)NS(=O)(=O)c1ccccc1` (configuration not stated) gave a z-score of -0.419.
`CCCCNC(=O)Cn1c2c(c(-c3ccccc3Cl)cc1=O)CCC2` was tested, and the z-score was -0.692.
`CCOc1ccccc1NC(=O)NC1CCN(CC(=O)Nc2ccc3c(c2)OCCO3)CC1` gave a z-score of -0.67.
`COCCN1Cc2cccc(C(=O)NCc3ccccn3)c2C1=O` showed a z-score of 0.551.
Compound `CCOC(=O)c1ccc(COc2nc3ccccc3nc2-c2ccccc2NC(C)=O)o1` has a z-score of -0.128.
`CCCOc1ccccc1NC(=O)CC1Nc2ccccc2NC1=O` (configuration not stated) gave a z-score of -0.508.
In the case of `CCOC(=O)c1sc(NC(=O)c2ccc(S(=O)(=O)N3CCCCC3)cc2)nc1-c1ccccc1`, the z-score is reported as -0.886.
`CCOc1ccc(CC2c3cc(OCC)c(OCC)cc3CCN2C(=O)c2cc(OC)c(OC)c(OC)c2)cc1OCC` (configuration not stated) showed a z-score of -0.12.
Work on `CCOc1ccc(NC(=O)N(CCC(C)C)C(C)c2ccco2)cc1` (configuration not stated) yielded a z-score of -1.62.
`CCOc1ccc(C(=S)N2CCCC2)cc1OC` was tested, and the z-score was -0.0476.
`COc1ccc(C2=NOC(C(=O)NC3CCCCC3)C2)cc1OC` (configuration not stated) showed a z-score of -1.39.
In the case of `COc1cnc(SCc2ccc(Cl)c(Cl)c2)nc1Cl`, the z-score is reported as 0.174.
In the case of `CSc1sc(C(=O)O)c2c1C(=O)CCC2`, the z-score is reported as -0.0515.
With `O=C(OCn1ncc(Cl)c(Cl)c1=O)c1ccc(C(F)(F)F)cc1` the z-score was -0.397.
Work on `CS(=O)(=O)N(CC(=O)Nc1cccc(F)c1)Cc1ccccc1` yielded a z-score of -0.0823.
For `COc1ccc(-n2nc(C(=O)NCC(=O)NCC3CCCO3)c3ccccc3c2=O)c(OC)c1` (configuration not stated), the z-score was -0.612.
Work on `CCn1c(CNc2ccc(OC)cc2)nnc1SCC(=O)c1ccc(OC)cc1` yielded a z-score of 0.18.
In the case of `Cc1ccc(-n2c3c(c(=O)[nH]c2=S)C(C(F)(F)F)(C(F)(F)F)NC(=O)N3)cc1`, the z-score is reported as -0.142.
`CCOc1ccc(-c2cc(C(=O)NCCCN3CCN(CC)CC3)c3ccccc3n2)cc1` showed a z-score of -0.519.
`COc1ccc(CN=C2Nc3ccccc3CS2)cc1` gave a z-score of -0.049.
With `CCN(CCNC(=O)C1CCN(S(C)(=O)=O)CC1)c1ccccc1` the z-score was -0.00745.
`O=C(Nc1ccc(Cl)c(Cl)c1)Nc1cc(C(=O)N2CCOCC2)ccc1N1CCCCC1` was tested, and the z-score was 0.242.
With `CC(C)c1nc2oc3c(NCC4CCCO4)ncnc3c2c2c1CCC2` (configuration not stated) the z-score was -0.0165.
`Cc1ccc(C2=C/C(=C\c3cccnc3)C(=O)O2)cc1` was tested, and the z-score was -0.143.
For `COc1cc(NC(=O)COC(=O)/C=C/c2ccc(Cl)cc2Cl)cc(OC)c1`, the z-score was -0.00952.
Compound `Cc1cccc(N2C(=O)C(Cc3ccccc3)NC2=S)c1` (configuration not stated) has a z-score of -0.114.
Work on `Cc1cc(C)c(S(=O)(=O)N2CCCOC2CNC(=O)C(=O)NCCC2=CCCCC2)c(C)c1` (configuration not stated) yielded a z-score of 0.0566.
For `O=c1c2ccccc2nnn1CSc1nc2sc3c(c2c(=O)n1CC1CCCO1)CCC3` (configuration not stated), the z-score was -0.608.
`Cc1cc(-c2ccc(Cl)cc2)n2nc(N)nc2n1` showed a z-score of -0.373.
`O=C(c1ccc(F)cc1)C1CCN(C(=O)NC2CCCCC2)CC1` gave a z-score of 0.636.
With `O=C1CCc2cc(S(=O)(=O)N3CCN(c4cccc(C(F)(F)F)c4)CC3)ccc2N1` the z-score was 0.918.
`CNC(=S)N(CCc1ccc(OC)c(OC)c1)Cc1cc2c(C)cc(C)cc2[nH]c1=O` gave a z-score of -0.187.
`c1ccc2c(c1)c1ccccc1n2CN1CCOCC1` gave a z-score of -0.144.
With `CC(=O)c1c(C)[nH]c(C(=O)CSc2nnc(-c3ccc(Cl)cc3)n2CC2CCCO2)c1C` (configuration not stated) the z-score was -0.306.
For `CN(C(=O)c1cnccn1)c1nnc(-c2cnccn2)s1`, the z-score was -1.3.
`CCn1ncc(Br)c1C(=O)Nc1ccc(Cl)cn1` gave a z-score of 0.138.
With `COc1ccc(C2OC34CCCCC3C(C#N)(C#N)C2(C#N)C(=N)O4)cc1` (configuration not stated) the z-score was -0.29.
`O=C(Nc1nnc(SCc2ccc(Cl)cc2)s1)c1ccco1` was tested, and the z-score was 0.62.
Compound `CCCN1CCN(CCCNC(=O)c2cc3c(=O)n(C)c4ccccc4c3n2C)CC1` has a z-score of 1.48.
For `O=[N+]([O-])c1ccc2nc(-c3ccccc3)n(OCc3ccc(Cl)cc3)c2c1`, the z-score was -0.153.
`Cc1ccc(OCn2c(=O)sc3ccccc32)cc1` showed a z-score of -1.31.
In the case of `O=C(CC1Oc2ccccc2NC1=O)NCc1ccccc1` (configuration not stated), the z-score is reported as 0.198.
For `Fc1ccc(-n2nnnc2-c2cnc(-c3cccs3)nc2C(F)(F)F)cc1`, the z-score was -0.224.
In the case of `COc1cc(NC(=O)c2cc3c(C)nc4ccccc4c3o2)cc(OC)c1OC`, the z-score is reported as -0.362.
Work on `CC(C)c1ccc(C2C3CSCC=C3C(C#N)=C(N)C2(C#N)C#N)cc1` (configuration not stated) yielded a z-score of -0.405.
Compound `CN1CCN(C2=C(Cl)C(=O)C(c3cnc(N4CCCCC4)s3)=C(Cl)C2=O)CC1` has a z-score of -0.251.
For `CC1=CC2=NC(=O)/C(=C\c3cccn3CCOc3ccc(C)c(C)c3)C(=N)N2O1`, the z-score was 0.082.
With `CCOc1ccc(C(=O)NC(=S)Nc2ccc(N3CCCCC3)cc2)cc1[N+](=O)[O-]` the z-score was 0.404.
With `COC(=O)c1ccc(/C=N/NC(=O)CC(=O)NCC(C)C)cc1` the z-score was -0.0626.
`Cc1cccc(-n2ncc3c(N4CCCC4)ncnc32)c1` gave a z-score of -0.272.
In the case of `COc1cccc2cc(-c3nnc(SCC(=O)NCCc4ccccc4)n3C)oc12`, the z-score is reported as -0.0662.
`Cc1ccc(NC(=O)CSc2nc3c(c(=O)[nH]2)CN(Cc2ccc(F)cc2)CC3)cc1C` gave a z-score of 0.411.
`CC(C)(C)C1CCc2c(sc(NC(=O)c3cccs3)c2C(=O)N2CCCCC2)C1` (configuration not stated) gave a z-score of -0.229.
`COc1ccccc1CNC(=O)C(NS(=O)(=O)c1ccc2c(c1)OCCO2)C(C)C` (configuration not stated) was tested, and the z-score was -0.203.
With `Cc1cc(C)c2nc(N3CCC(C(=O)NCCCN4CCCCC4)CC3)sc2c1` the z-score was 0.25.
`Cc1cc(C)c2nc(SCC(=O)Nc3ccc(S(=O)(=O)N4CCCC4)cc3)c(C)cc2c1` was tested, and the z-score was -0.138.
`O=C(/C=C/c1ccccc1)NC(=S)Nc1ccc2c3c(cccc13)CC2` gave a z-score of -0.162.
With `Cc1cccc(C(=O)O)c1NC(=O)c1ccc(F)cc1` the z-score was -0.225.
In the case of `Cc1ccc(-c2c(C(=O)NCc3ccc(F)cc3)oc(=O)c3ccccc23)cc1`, the z-score is reported as -0.135.
`CC(C)c1ccc(Nc2cnn(C34CC5CC(CC(CC(=O)O)(C5)C3)C4)c(=O)c2Cl)cc1` gave a z-score of -0.0902.
With `Cc1ccc(Cn2c(/C=C/c3ccco3)nc3ccccc32)cc1` the z-score was -0.117.
With `CCN(CC)S(=O)(=O)c1cccc(C(=O)Nc2sc3c(c2C(N)=O)CCCC3)c1` the z-score was 0.11.
In the case of `Cc1cc(C)c(NC(=O)CSc2nnc(-c3ccncc3)n2Cc2ccco2)c(Cl)c1`, the z-score is reported as 0.453.
For `Nc1c(C2=NCCO2)nnn1Cc1ccccc1`, the z-score was 0.11.
In the case of `CS(=O)(=O)Nc1ccc(C(=O)NCCSCc2ccco2)cc1`, the z-score is reported as 0.0408.
`CCOC(=O)c1ccc(CNC(=O)Cn2nnc(-c3ccc(C)cc3)n2)o1` was tested, and the z-score was -0.199.
For `O=C(NCC(c1cccs1)N1CCOCC1)c1cc2ccccc2o1` (configuration not stated), the z-score was -0.224.
For `C/C(=N/NC(=O)CCCOc1ccc(Cl)cc1Cl)c1ccc(C)o1`, the z-score was -2.09.
`COc1ccc(OCCSCc2nnc(NC(=O)Nc3ccc(Cl)cc3)s2)cc1` was tested, and the z-score was -0.221.
`COc1ccc(-c2cc(C(=O)Nc3nc4c(C)cccc4s3)c3ccccc3n2)cc1OC` showed a z-score of 0.101.
Work on `O=C(NCCCO)c1nnc(Cc2c(F)cccc2Cl)o1` yielded a z-score of 0.0279.
Compound `Cc1ccc2[nH]c(=O)c(CN(C(=O)c3cccs3)c3ccccc3)cc2c1` has a z-score of -0.287.
Compound `O=c1c2c(nc3cc(-c4ccccc4)[nH]n13)CCS2` has a z-score of -0.106.
With `NC(=O)COc1ccc(=O)n(-c2ccccc2)n1` the z-score was -0.556.
`CC(C)(C)c1ccc(OC2=CS(=O)(=O)c3ccccc32)cc1` was tested, and the z-score was -0.107.
`CCOC(=O)c1c(C)[nH]c(C(=O)Cn2c(=O)oc3ccccc32)c1C` showed a z-score of 0.337.
Compound `O=C(CN1CCC(n2nnc3cc(C(F)(F)F)ccc32)CC1)Nc1ccc2c(c1)OCCO2` has a z-score of 0.0835.

— PubChem BioAssay AID488969 (Vanderbilt High Throughput Screening Facility, 2010)
